These results are taken from paper PMC12040169 (PLOS Biology, 2025).

The other results are listed elsewhere or left out.

The test system of this assay is T1, C. trachomatis L2/434/Bu expressing GFP (CTL2-GFP).
T1 construct: L2/434/Bu GFP intracellular growth in HeLa cells
The arrangement: species or system HeLa; C. trachomatis total inclusion area by high-content imaging, normalised to DMSO. The note with it: total inclusion area; 28.5 h, 10 µM; inhibitor. The method in brief:
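After bulk GFP and resorufin fluorescence reads, cells were fixed, stained with Hoechst and imaged by high-content microscopy. Inclusion area and number (GFP) stood in for chlamydial growth, nuclei count (Hoechst) for host cell viability. MICs were derived as for the bulk readout.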
Take `O/N=C1/CCCCCC1NO` (stereo not shown) [CBK264368A]: the “% of control remaining” value is on record as 115.559.
For `CC(C)CN1CC(C(=O)N(C)CC2OCCc3ccccc32)CC1=O` (stereo not shown) [CBK282093] the value was 74.6237.
On to `COc1ncc(-c2cncc(N3CCN(c4ccc(OC)c(OC)c4)CC3)n2)c(OC)n1` [CBK065169], for which the “% of control remaining” value came to 80.0562.
`COCCNC(=O)[C@@H](C)C1CC[C@@]2(C)CC[C@H](NS(C)(=O)=O)[C@@H](C)[C@@H]2[C@H]1O` (stereo partly shown) [CBK289457]: the “% of control remaining” value came out at 108.54.
For `O=C(CN1CCC(c2cncc(-c3cccc(C(F)(F)F)c3)n2)CC1)N1CCCC1` [CBK286152] the value was 94.1825; for `O=C(NCc1ccccn1)c1ccc(NS(=O)(=O)c2cccc(Cl)c2)cc1` [CBK267249], 77.9544; for `O=C(CN1CCN(c2ccccc2)CC1)Nc1ccc([N+](=O)[O-])cc1C(=O)c1ccccc1` [CBK265799], 101.814.
Under `CCCCNC(=O)c1ccc2nc(CC)c(N(C)CCC(C)C)n2c1` [CBK145477] stands 98.2293.
On to `O=C(O)CCC(=O)NCc1ccc2c(c1)OCO2` [CBK286930], for which the “% of control remaining” value is 111.72.
As to `COc1ccc(C2CCN(CC(=O)N3CCCC3)CC2)cc1` [CBK283561], the “% of control remaining” value was determined as 77.3045.
Under `Cc1nn(CCCC(=O)Nc2sc3c(c2C#N)CCC(C(C)(C)C)C3)c(C)c1[N+](=O)[O-]` (stereo not shown) [CBK268982] stands 89.9048; under `CCCC1=NN=C(c2cc(C(F)(F)F)ccc2C(F)(F)F)C1C(=O)OCC` (stereo not shown) [CBK103527], 21.5736.
Under `COC(C)CN(C)C(=O)c1cc2cc(C)ccc2nc1C` (stereo not shown) [CBK282036] stands 97.0343; under `O=C(O)c1ccc(/C=N/NC(=O)C2COc3ccccc3O2)cc1` (stereo not shown) [CBK261481], 112.704.
Turning to `Cc1oc2c(c1CC(=O)N(C)CCN(C)C)C(=O)CC(C)(C)C2` [CBK282171], the “% of control remaining” value is given as 80.6736.
For `CCOC(=O)c1cn([C@H](CO)CCSC)cc(Oc2ccccc2)c1=O` [CBK307349] the value was 68.219; for `Cc1ccc(C)c(NC(=O)CC2C(=O)N(c3ccccc3)C(=S)N2Cc2ccco2)c1` (stereo not shown) [CBK267119], 102.658.
`CNC(=O)C1(Cc2ccccc2-c2cccs2)CCN(C(=O)Cc2ccc(C)cc2)CC1` [CBK285697]: the “% of control remaining” value worked out at 123.832.
For `CSc1ncc(C(=O)N2CCN3CCN(C)CC3C2)c(=O)[nH]1` (stereo not shown) [CBK307677] the value was 60.1281; for `COc1ccc(C(C)C)cc1-c1nccnc1N1CCCN(C)CC1` [CBK036677], 84.6691; for `Cc1cc2ccccc2n2c(=O)n(Cc3cscn3)nc12` [CBK282381], 63.6536.
As for `O=S(=O)(c1c(F)cccc1F)N1CCN(Cc2ccc3c(c2)OCO3)CC1` [CBK074600], the “% of control remaining” value was 86.856.
`COc1cc2c(cc1OC)CN(C(=O)c1ccc3[nH]cnc3c1)CC2` [CBK295331]: the “% of control remaining” value stood at 10.5183.
For `COC(=O)c1cc(Br)c(NC(=O)c2cccs2)cc1OC` [CBK066842] the value was 145.235; for `CC(=O)N1CCc2cc(Nc3ncnc4c3cnn4CCC#N)ccc21` [CBK305950], 51.5331; for `COc1ccc(S(=O)(=O)n2ccn(C(c3ccccc3)c3ccccc3)c2=O)cc1OC` [CBK106621], 89.1235.
Under `CCN1CCC2(CC1)NC(=O)Cc1ccccc12` [CBK039810] stands 86.9862; under `N#CCCn1cc(C(=O)N2CCCCC2)c(-c2cccc(Cl)c2)n1` [CBK306209], 70.0006; under `OCCNc1nc(Cl)nc(Nc2nc(-c3ccccc3)cs2)n1` [CBK261381], 109.7.
Turning to `CC1CCCCN1C(=O)c1ccc(-n2ccnc2)c(-n2cccc2)c1` (stereo not shown) [CBK284832], the “% of control remaining” value is 102.764.
Consider `O=C(NC(c1ccc(Cl)cc1)c1ccsc1)C1CCN(CCCN2C(=O)CC3CCCCC3C2=O)CC1` (stereo not shown) [CBK147974], for which the “% of control remaining” value is given as 100.661.
For the compound `O=C(O)C(c1c[nH]c2ccccc12)N1CCN(S(=O)(=O)c2ccccc2)CC1` (stereo not shown) [CBK286643], the “% of control remaining” value is on record as 83.2624.
`O=C(CSc1nc2ccccc2c(=O)n1-c1ccc(F)cc1)Nc1ccc(C(=O)O)cc1` [CBK296140]: the “% of control remaining” value is listed as 45.1605.
Consider `CC(=O)NC(c1nccs1)C1CCN(C(=O)C(C)(C)C)CC1` (stereo not shown) [CBK284677], for which the “% of control remaining” value worked out at 87.6789.
Under `CCCCCn1c(=O)c(C(=O)Nc2cccc(O)c2)c(O)c2ccccc21` [CBK291189] stands 81.1179; under `COC(=O)[C@@H](C)NC(=O)[C@H]1CN(C(=O)c2cccnc2)CCN1C(=O)c1cccs1` [CBK289628], 102.033.
On to `CCOC(=O)c1sc2nc(C(C)N3CCCCC3)[nH]c(=O)c2c1C` (stereo not shown) [CBK306078], for which the “% of control remaining” value was 67.9582.
As for `Cc1cc2c(cc1C)OC1(C=C2)CCN(C(=O)N2CCOCC2)CC1` [CBK285314], the “% of control remaining” value is 72.1443.
For `NC(=O)CCN1CCCC2(CCN(C(=O)Cc3c[nH]c4ccccc34)C2)C1` (stereo not shown) [CBK132041] the value was 99.8262.
Under `CC(=O)NCCc1nc2cc(NC(=O)Nc3ccccc3)ccc2n1C` [CBK268216] stands 91.4469.
For `CCCCC(c1cccnc1)N(C)C(=O)c1cccn(C)c1=O` (stereo not shown) [CBK307496], the “% of control remaining” value stood at 82.8197.
Under `NS(=O)(=O)c1ccc(NC(=O)CSc2cccc3ccccc23)cc1` [CBK268987] stands 106.265; under `Cc1ccc(S(=O)(=O)Nc2nc(C)cs2)cc1` [CBK102326], 105.817; under `COc1cc(/C=N/NC(=O)c2ccc([N+](=O)[O-])cc2)ccc1OC(C)=O` [CBK261348], 81.989.
Under `CC(C)NCC(O)COCc1ccc(Cl)cc1` (stereo not shown) [CBK261406C] stands 99.885; under `CN(CC(=O)NNC(=O)c1ccc(C(C)(C)C)cc1)S(=O)(=O)c1cc(Cl)ccc1Cl` [CBK267376], 101.613.
Turning to `Cn1c(=O)c2c(nc(CN3CCCCC3)n2CCCO)n(C)c1=O` [CBK269280], the “% of control remaining” value was 103.615.
For `Brc1ccc(CN2CCN(Cc3c[nH]c4ccccc34)CC2)cc1` [CBK027622] the value was 60.0014; for `O=C(CC1NCCNC1=O)Nc1cccc(Cl)c1` (stereo not shown) [CBK266454], 90.4877; for `COc1cc(CNc2cncc(-c3cccc(C(=O)NCCO)c3)n2)cc(OC)c1OC` [CBK065421], 91.8325.
Take `Cn1nccc1C(=O)N[C@H]1CCC[C@@H](c2c[nH]c3ccccc23)C1` [CBK285073]: the “% of control remaining” value is 117.307.
Under `Cc1nc2ccccc2nc1SCc1nc(N)nc(N2CCCCC2)n1` [CBK270218] stands 109.032.
With `Cc1ccc(-n2cc(-c3ccccc3)[nH]c2=O)cc1` [CBK288103], the “% of control remaining” value is recorded as 112.962.
Under `O=C(O)C1C2C=CC(C2)C1C(=O)NCc1ccco1` (stereo not shown) [CBK265453] stands 111.013; under `CC(O)CNC(=O)c1cn2cc(-c3cccs3)n(CC3CC3)c(=O)c2n1` (stereo not shown) [CBK307117], 49.7379; under `O=C(Nc1ccc2n(c1=O)C[C@@H]1CNC[C@H]2C1)c1ccncc1` [CBK289177], 93.5253.
For the compound `CC(C)Nc1nccnc1Sc1ccccc1O` [CBK089492], the “% of control remaining” value was found to be 94.0593.
Regarding `O=C(c1cc(-c2cccc(Br)c2)nc2ccccc12)N1CCN(C/C=C/c2ccccc2)CC1` [CBK262633], the “% of control remaining” value came out at 91.8084.
For `O=C(Nc1ccc2c(c1)OCO2)c1nccnc1-c1ccc(COc2ccccc2)cc1` [CBK050834] the value was 95.9655; for `Cn1ncc2c(=O)[nH]c(N3CCN(c4cc(C#N)ccn4)CC3)nc21` [CBK304924], 34.6917; for `COc1cccc(CCN2N=C(C)CC2=O)c1OC` [CBK067766], 109.218.
In the case of `Cc1nn(CCNC(=O)C2CC3C=CC2C32CC2)c(C)c1Cl` (stereo not shown) [CBK281429], the “% of control remaining” value was 95.3786.
In the case of `O=C(Nc1ccc(N2CCNCC2)nc1)c1cccnc1` [CBK029439T], the “% of control remaining” value is on record as 84.0103.
For the compound `FC(F)(F)c1cccc(Oc2nnnn2-c2ccccc2)c1` [CBK002798], the “% of control remaining” value amounted to 94.0203.
As for `Cc1cc(C)cc(/N=C2\NC(=O)C(CC(=O)O)S2)c1` (stereo not shown) [CBK286878], the “% of control remaining” value was found to be 89.6799.
For `O=S(=O)(Nc1nnc(C(F)(F)F)s1)c1csc2ccccc12` [CBK062009] the value was 103.535.
Regarding `COC(=O)CCc1ccc(S(=O)(=O)N2CCCN(Cc3ccc4c(c3)OCO4)CC2)cc1` [CBK063130], the “% of control remaining” value came to 77.0762.
For `CN1CCN(c2ccc(NC(=O)c3cc4oc(-c5ccccc5)nc4c(=O)n3C)cc2)CC1` [CBK200425] the value was 95.9653; for `Cc1cc2c(cc1C)N(C(=O)CSc1nc3ccccc3[nH]1)C(C)(C)CC2C` (stereo not shown) [CBK264144], 98.0782.
Under `Cc1cccc(C)c1OCc1nnc(SCC(=O)c2ccc(F)cc2)n1C` [CBK269715] stands 100.587; under `CCC(NC1CCc2nc(COC)nn2C1)C1CCC1` (stereo not shown) [CBK304739], 68.374; under `CS(=O)(=O)Nc1ccc(C(=O)Nc2ccc(S(=O)(=O)N3CCCC3)cc2)cc1` [CBK268592], 124.061.
Regarding `Cc1cc(C)nc(SCc2nc3ccc([N+](=O)[O-])cc3[nH]2)n1` [CBK264634], the “% of control remaining” value was 115.581.
`Cc1ccc(NC(=O)Cn2c(=O)cc(O)c3ccccc32)cc1` [CBK291116]: the “% of control remaining” value came to 96.8929.
For `OCCN1CCN(CC(O)COc2ccc(Cl)cc2Cl)CC1` (stereo not shown) [CBK278198C] the value was 104.865; for `COc1ccc(C2=NN(c3ccc(C(=O)O)cc3)C(c3ccc(OC)c(OC)c3)C2)cc1` (stereo not shown) [CBK296134], 106.956.
As for `Cc1ccc(NC(=O)COc2ccc(/C=C\c3onc(C)c3[N+](=O)[O-])cc2)cc1` [CBK268928], the “% of control remaining” value is 59.0186.
Under `Cc1ccc2[nH]c(C)c(CC(=O)N(C)CCN(C)C)c2c1` [CBK282674] stands 115.566; under `O=S(=O)(Cc1ccccc1Cl)NCCN1CCOCC1` [CBK269171], 98.8848.
